{"source": "FireProtDB (doi:10.1021/bi00007a007)", "details": "Escherichia coli (strain K12); pH 7; Thermal; DSC; Sodium phosphate 50 mM; reversible: yes"}
{"substance": "Thioredoxin 1 wild type (sequence not shown)", "values": [{"measurement": "Tm", "value": 85.3, "unit": "°C"}, {"measurement": "heat capacity change of unfolding", "value": 1.9, "unit": "kcal/mol/K"}]}
